The record followed here is patent US20080075796A1, “Compositions and Methods for Controlling Insects” (TyraTech, Inc., priority 2003, published 2008).

The test system of one assay is farm ants. Briefly: Repellent effect on farm ants (treated filter paper). Format: in vivo. Here is the method:
(§1) Adult insect are randomly selected for testing the repellent effect of compositions and are not individually marked. About 5 insects per replicate are used. About 3 replicates are used for each treatment. Untreated control tests are included with only solvent (acetone) application to an equal sized population/replications, held under identical conditions. A filter paper (about 80 cm^2) is treated with the composition (about 100 mg in […] acetone). After about 3 min of air drying, the filter paper is placed in a dish and repellency against insects is performed. Insects are released to the dish, one insect at a time at the far end of the dish. Using one or more stopwatches, the time spent on either the filter paper or the untreated surface of the dish is recorded up to about 300 seconds. Repellency ratio (RR) is calculated as follows: RR=[(time on control surface−time on treated surface)/total time of test].
The repellent effect of various plant essential oils is tested by treating a filter paper with the test oils. After about five minutes at room temperature, the paper is placed in a dish and ants are introduced one at a time. […] Oils are tested alone. Additionally, oils are mixed to form compositions, which are then tested.

The test system of a further assay is Carpenter ants. Nature of the assay: Repellent effect on carpenter ants (treated filter paper). Format: in vivo. As for the experimental part: as §1, with “test]. If RR>0 then the composition is considered to have a repellant effect, that is to say, an effect, wherein more insects are repelled away from treated surface than the control surface; if RR<0 then the composition is considered not to have a repellant effect.” for “test].”
The repellent effect of various plant essential oils is tested by treating a filter paper with the test oils. After about five minutes at room temperature, the paper is placed in a dish and ants are introduced one at a time. The repellency is determined as described above, in Example 14. Oils are tested alone. Additionally, oils are mixed to form compositions, which are then tested.

Setting [1] is: Day 0, time on treated surface of up to about 300 seconds.

As to `CC(=O)OCc1ccc2c(c1)OCO2` [piperonyl acetate], the “Repellency %, R %” value with farm ants (Day 0) was determined as 65.1%; in the assay with farm ants (Day 1), 28.9%. Also, the results for the “sec. on T surface” value with farm ants (setting [1]) and in the assay on farm ants (Day 1) were 52.4 s and 106.6 s, respectively.

Consider `O=CCc1ccccc1` [phenyl acetaldehyde], for which the “Repellency %, R %” value in the assay on farm ants (Day 0) came out at 03.5%. In addition, the “sec. on T surface” value in the assay on farm ants (setting [1]) stood at 144.8 s.

Consider `C=CCc1ccc(O)c(OC)c1` [eugenol], for which the “Repellency %, R %” value in the assay with farm ants (Day 0) was 48.8%; in the assay on farm ants (Day 1), 07.3%. For the same molecule, the figures for the “sec. on T surface” value with farm ants (setting [1]) and with farm ants (Day 1) were 76.8 s and 139.0 s, respectively.

As to `CC(C)=CCC/C(C)=C/CO` [geraniol], the “sec. on T surface” value in the assay with Carpenter ants (Day 0, time on treated surface of up to about 300 seconds, listed as Geraniol) stood at 69.0 s. In the assay on Carpenter ants (Day 1), the “Repellency %, R %” value came out at 14.0% and the “sec. on T surface” value turned out to be 129.0 s.
